For 18 molecules, enrichment score results are on record in the supplement of paper PMC10369915.

Some of the results follow. Cut-off read from the data, not from the text of the source: active = 3.2 or more and inactive = the rest. The signal is at background level for most entries.
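Note: displayed peptides selected on beads carrying the immobilized SH2 domain, with library peptides lacking any tyrosine serving as negative controls.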

The first test deals with SHP2 C-SH2 domain E139D. The test is described as follows: enrichment score (SH2-bound / input frequency) (ratio); bacterial display of known human phosphotyrosine sites (pTyr-Var adds point mutants) read by sequencing; higher = stronger binding; tyrosines were phosphorylated by kinases first. To be noted: peptide library: pTyr-Var.
Take MWGSDYVHLSR [MAP3K4_Y582_Q584H]: the enrichment score was inactive: 0.966.
The same measure, in the same setting: the result for FGISGYLVDSV [MAP2K3_Y214] reads inactive: 1.64; that for YTGDIYSNSNL [LZTR1_Y141], inactive: 0.688.
In the case of WGLRSYFETSK [MAGED2_Y448_YF], the enrichment score is inactive: 2.89.
On to HYEFKYVINAI [MAOA_Y268_C266F], for which the enrichment score was inactive: 1.41.
For the molecule GLCSFYETSKM [MAGED2_Y449_R446C_YF], the enrichment score was inactive: 1.17.
Regarding PLGKDYRKAEG [MAP1A_Y1909], the enrichment score is inactive: 0.517.
The same measure, in the same setting: the result for AATTAYSKPKR [MAP3K7_Y405] reads inactive: 0.477; that for PSDSGYSYETI [MAP1B_Y1921], inactive: 0.409; that for AATTAYSKPKQ [MAP3K7_Y405_R410Q], inactive: 1.23.
For the molecule PLGKDYRKVEG [MAP1A_Y1909_A1912V], the enrichment score was inactive: 0.499.
Still for that read-out and setting: the result for HYECKYVINAI [MAOA_Y268] reads inactive: 0.653; that for HYGNNYTDVLQ [MACC1_Y803_R804T], inactive: 0.93.
On the same count and under the same terms, the same measure for DHAGTYGLGDR [MAPT_Y18]: inactive: 0.547.
The same measure, in the same setting: the same measure for WGTAEYDSVVA [MAP1A_Y1883]: inactive: 0.869; for RRGTGYTLSLP [MAGEC3_Y152]: inactive: 0.319; for MANYMYKAGPS [MAML2_Y515]: inactive: 0.692.
For the molecule REHTVYWEPRK [MAGEA4_Y240_G241W], the enrichment score is inactive: 1.2.

The next test has as its target SHP2 C-SH2 domain wild-type. Described as above. To be noted: peptide library: pTyr-Var.
As for MWGSDYVHLSR [MAP3K4_Y582_Q584H], the enrichment score is inactive: 0.849.
On to FGISGYLVDSV [MAP2K3_Y214], for which the enrichment score is inactive: 1.53.
Regarding YTGDIYSNSNL [LZTR1_Y141], the enrichment score was inactive: 0.596.
Take WGLRSYFETSK [MAGED2_Y448_YF]: the enrichment score was inactive: 2.41.
Consider HYEFKYVINAI [MAOA_Y268_C266F], for which the enrichment score is inactive: 1.72.
Same read-out and setting: the result for GLCSFYETSKM [MAGED2_Y449_R446C_YF] reads inactive: 1.02; that for PLGKDYRKAEG [MAP1A_Y1909], inactive: 0.515; that for AATTAYSKPKR [MAP3K7_Y405], inactive: 0.465.
Still for that read-out and setting: the same measure for PSDSGYSYETI [MAP1B_Y1921]: inactive: 0.389.
On to AATTAYSKPKQ [MAP3K7_Y405_R410Q], for which the enrichment score was inactive: 0.437.
Consider PLGKDYRKVEG [MAP1A_Y1909_A1912V], for which the enrichment score is inactive: 0.405.
Regarding HYECKYVINAI [MAOA_Y268], the enrichment score is inactive: 1.4.
On to HYGNNYTDVLQ [MACC1_Y803_R804T], for which the enrichment score is inactive: 1.8.
For DHAGTYGLGDR [MAPT_Y18], the enrichment score is inactive: 0.606.
With WGTAEYDSVVA [MAP1A_Y1883], the enrichment score was inactive: 0.826.
Consider RRGTGYTLSLP [MAGEC3_Y152], for which the enrichment score is inactive: 0.316.
Turning to MANYMYKAGPS [MAML2_Y515], the enrichment score was inactive: 0.859.
Turning to REHTVYWEPRK [MAGEA4_Y240_G241W], the enrichment score is inactive: 1.59.

The next test has as its target SHP2 N-SH2 domain L43F. Described as above. Conditions: peptide library: pTyr-Var.
MWGSDYVHLSR [MAP3K4_Y582_Q584H]: the enrichment score was inactive: 0.986.
On the same count and under the same terms, the same measure for FGISGYLVDSV [MAP2K3_Y214]: inactive: 1.56; for YTGDIYSNSNL [LZTR1_Y141]: inactive: 0.56; for WGLRSYFETSK [MAGED2_Y448_YF]: inactive: 2.75.
Regarding HYEFKYVINAI [MAOA_Y268_C266F], the enrichment score is inactive: 1.17.
On to GLCSFYETSKM [MAGED2_Y449_R446C_YF], for which the enrichment score is inactive: 0.917.
In the case of PLGKDYRKAEG [MAP1A_Y1909], the enrichment score is inactive: 0.543.
The same measure, in the same setting: the result for AATTAYSKPKR [MAP3K7_Y405] reads inactive: 0.411.
Take PSDSGYSYETI [MAP1B_Y1921]: the enrichment score was inactive: 0.315.
On the same count and under the same terms, the result for AATTAYSKPKQ [MAP3K7_Y405_R410Q] reads inactive: 0.426; that for PLGKDYRKVEG [MAP1A_Y1909_A1912V], inactive: 0.398; that for HYECKYVINAI [MAOA_Y268], inactive: 0.844.
With HYGNNYTDVLQ [MACC1_Y803_R804T], the enrichment score was inactive: 1.02.
As to DHAGTYGLGDR [MAPT_Y18], the enrichment score was inactive: 0.508.
In the case of WGTAEYDSVVA [MAP1A_Y1883], the enrichment score is inactive: 0.66.
Turning to RRGTGYTLSLP [MAGEC3_Y152], the enrichment score was inactive: 0.263.
In the case of MANYMYKAGPS [MAML2_Y515], the enrichment score is inactive: 0.812.
The same measure, in the same setting: the same measure for REHTVYWEPRK [MAGEA4_Y240_G241W]: inactive: 0.832.

The target in another test is SHP2 N-SH2 domain T42A. Described as above. Conditions: peptide library: pTyr-Var.
Take MWGSDYVHLSR [MAP3K4_Y582_Q584H]: the enrichment score is inactive: 0.927.
With FGISGYLVDSV [MAP2K3_Y214], the enrichment score was inactive: 1.91.
Same read-out and setting: the result for YTGDIYSNSNL [LZTR1_Y141] reads inactive: 0.45; that for WGLRSYFETSK [MAGED2_Y448_YF], inactive: 2.78.
As to HYEFKYVINAI [MAOA_Y268_C266F], the enrichment score is inactive: 1.08.
As to GLCSFYETSKM [MAGED2_Y449_R446C_YF], the enrichment score is inactive: 1.02.
With PLGKDYRKAEG [MAP1A_Y1909], the enrichment score was inactive: 0.476.
For AATTAYSKPKR [MAP3K7_Y405], the enrichment score is inactive: 0.6.
For the molecule PSDSGYSYETI [MAP1B_Y1921], the enrichment score was inactive: 0.554.
Regarding AATTAYSKPKQ [MAP3K7_Y405_R410Q], the enrichment score is inactive: 0.932.
PLGKDYRKVEG [MAP1A_Y1909_A1912V]: the enrichment score was inactive: 0.246.
HYECKYVINAI [MAOA_Y268]: the enrichment score is inactive: 0.854.
For the molecule HYGNNYTDVLQ [MACC1_Y803_R804T], the enrichment score is inactive: 1.89.
In the case of DHAGTYGLGDR [MAPT_Y18], the enrichment score was inactive: 0.57.
For the molecule WGTAEYDSVVA [MAP1A_Y1883], the enrichment score is inactive: 0.702.
Turning to RRGTGYTLSLP [MAGEC3_Y152], the enrichment score is inactive: 0.331.
Same read-out and setting: the same measure for MANYMYKAGPS [MAML2_Y515]: inactive: 0.63; for REHTVYWEPRK [MAGEA4_Y240_G241W]: inactive: 1.03.

A further test concerns the target SHP2 N-SH2 domain T52S. The test is described as above. Conditions: peptide library: pTyr-Var.
Take MWGSDYVHLSR [MAP3K4_Y582_Q584H]: the enrichment score is inactive: 0.906.
On the same count and under the same terms, the same measure for FGISGYLVDSV [MAP2K3_Y214]: inactive: 1.97; for YTGDIYSNSNL [LZTR1_Y141]: inactive: 0.637; for WGLRSYFETSK [MAGED2_Y448_YF]: inactive: 2.86.
For HYEFKYVINAI [MAOA_Y268_C266F], the enrichment score is inactive: 0.975.
On to GLCSFYETSKM [MAGED2_Y449_R446C_YF], for which the enrichment score is inactive: 1.11.
For PLGKDYRKAEG [MAP1A_Y1909], the enrichment score is inactive: 0.444.
As to AATTAYSKPKR [MAP3K7_Y405], the enrichment score is inactive: 0.578.
On to PSDSGYSYETI [MAP1B_Y1921], for which the enrichment score was inactive: 0.46.
On to AATTAYSKPKQ [MAP3K7_Y405_R410Q], for which the enrichment score is inactive: 0.455.
Consider PLGKDYRKVEG [MAP1A_Y1909_A1912V], for which the enrichment score is inactive: 0.313.
Consider HYECKYVINAI [MAOA_Y268], for which the enrichment score is inactive: 1.04.
For HYGNNYTDVLQ [MACC1_Y803_R804T], the enrichment score was inactive: 0.948.
On the same count and under the same terms, the result for DHAGTYGLGDR [MAPT_Y18] reads inactive: 0.588.
Turning to WGTAEYDSVVA [MAP1A_Y1883], the enrichment score was inactive: 0.536.
On the same count and under the same terms, the same measure for RRGTGYTLSLP [MAGEC3_Y152]: inactive: 0.203; for MANYMYKAGPS [MAML2_Y515]: inactive: 0.754; for REHTVYWEPRK [MAGEA4_Y240_G241W]: inactive: 0.851.

For a further test, the target named is SHP2 N-SH2 domain wild-type. The test is described as above. To be noted: peptide library: pTyr-Var.
In the case of MWGSDYVHLSR [MAP3K4_Y582_Q584H], the enrichment score was inactive: 1.
Same read-out and setting: the same measure for FGISGYLVDSV [MAP2K3_Y214]: inactive: 1.23; for YTGDIYSNSNL [LZTR1_Y141]: inactive: 0.762.
Consider WGLRSYFETSK [MAGED2_Y448_YF], for which the enrichment score was inactive: 2.17.
Still for that read-out and setting: the result for HYEFKYVINAI [MAOA_Y268_C266F] reads inactive: 2.09; that for GLCSFYETSKM [MAGED2_Y449_R446C_YF], inactive: 1.37.
For the molecule PLGKDYRKAEG [MAP1A_Y1909], the enrichment score is inactive: 0.707.
For the molecule AATTAYSKPKR [MAP3K7_Y405], the enrichment score was inactive: 0.562.
Still for that read-out and setting: the result for PSDSGYSYETI [MAP1B_Y1921] reads inactive: 0.378; that for AATTAYSKPKQ [MAP3K7_Y405_R410Q], inactive: 0.866; that for PLGKDYRKVEG [MAP1A_Y1909_A1912V], inactive: 0.532.
Regarding HYECKYVINAI [MAOA_Y268], the enrichment score was inactive: 1.27.
With HYGNNYTDVLQ [MACC1_Y803_R804T], the enrichment score was inactive: 1.13.
On the same count and under the same terms, the same measure for DHAGTYGLGDR [MAPT_Y18]: inactive: 0.706.
In the case of WGTAEYDSVVA [MAP1A_Y1883], the enrichment score is inactive: 0.783.
Still for that read-out and setting: the same measure for RRGTGYTLSLP [MAGEC3_Y152]: inactive: 0.359; for MANYMYKAGPS [MAML2_Y515]: inactive: 0.684; for REHTVYWEPRK [MAGEA4_Y240_G241W]: inactive: 1.41.
